This note sets out measurements from paper PMC9574860, “Chemical Toolkit for PARK7: Potent, Selective, and High-Throughput” (Journal of Medicinal Chemistry, 2022).

Hit rate of the full screen: of about 7,900 compounds, about 400 (5.1%) showed an effect of 50% or more. The list shows a part of the results.

Chain of Parkinson's disease protein 7 (PARK7/DJ1) (Q99497 whole entry, looked up, the tested form may be a part): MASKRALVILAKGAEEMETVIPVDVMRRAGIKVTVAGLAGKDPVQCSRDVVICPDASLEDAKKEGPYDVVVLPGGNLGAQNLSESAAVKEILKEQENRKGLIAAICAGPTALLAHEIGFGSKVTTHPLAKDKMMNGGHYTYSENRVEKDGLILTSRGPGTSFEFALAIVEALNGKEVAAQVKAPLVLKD

For this experiment, the target named is Parkinson's disease protein 7 (PARK7/DJ1) (human, UniProt Q99497). Description: primary screen, percent inhibition; read as competition with a fluorescent probe by fluorescence polarization; higher = more effect of the substance. The note with it: 100 µM. Put shortly:
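Covalent fragments at 100 μM final were incubated 2 h with 0.2 μM PARK7, then 20 nM probe JYQ-107 added for a further 2 h. Fluorescence polarization read at 480/520 nm; relative FP loss versus reference controls gave remaining enzyme activity.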
In the case of `Cn1nccc1C=C(C#N)c1ccccn1`, the Inhibition % was found to be 6.39%.
With `O=C(c1ccccc1)N1CCN(C(=O)n2ccnc2)CC1`, the Inhibition % is 2.18%.
For the compound `O=C(O)CNS(=O)(=O)C=Cc1ccccc1`, the Inhibition % stood at 84.3%.
Take `O=C(CCl)N(c1ccc(F)cc1)C1C=CS(=O)(=O)C1` (centres unmarked): the Inhibition % is recorded as 4.62%.
Turning to `N#CC(=Cc1csc(-c2ccco2)n1)C(=O)O`, the Inhibition % amounted to 15%.
As for `CC(C)N1CCN(c2nc3ccccn3c2C#N)CC1=O`, the Inhibition % was 0.891%.
To `O=C(C=Cc1ccc2ccccc2n1)N1CCCS1(=O)=O` belongs 10.9%; to `CCc1nc(C)cn1S(=O)(=O)c1cc(C)ccc1OC`, 2.65%.
As for `CN(CC(=O)Nc1ccc(Cl)cc1)C(=O)CCl`, the Inhibition % is on record as 75.9%.
To `CC(NC(=O)CCl)c1ccc2c(c1)CC(=O)N2` (centres unmarked) belongs 9.9%.
Turning to `O=C(CN1C(=O)CCC1=O)Nc1cccc(Cl)c1`, the Inhibition % is recorded as 7.52%.
As for `CC(NS(=O)(=O)C=Cc1ccccc1)c1ccccn1` (centres unmarked), the figure is 0.0636%; as for `N#CC(=Cc1ccc(F)c(F)c1)c1ccno1`, 5.66%.
As to `CN1CCN(c2ccc(C#N)nc2)CC1`, the Inhibition % is recorded as 7.16%.
In the case of `Cc1ccc(N2C(=O)CN=C2S)cc1`, the Inhibition % is given as 3.09%.
`CCC1CN(C(=O)c2cccnc2S)CCO1` (centres unmarked): the Inhibition % came to 6.34%.
`Cc1cc(C)n(-c2ccc(B(O)O)cc2)n1`: the Inhibition % is reported as 6.09%.
To `CC(C)N=c1ccccn1C(=O)CN1CCSC1=O` belongs 10.2%; to `CCc1ccc(C=C(C#N)S(C)(=O)=O)cc1`, 13.1%.
For `Cc1ccc(S(=O)(=O)n2cccn2)c(C)c1`, the Inhibition % was 5.4%.
Consider `O=C1OCCC1Sc1nnc2c(n1)[nH]c1ccccc12` (centres unmarked), for which the Inhibition % is on record as 9.57%.
On to `CSc1ccc(C#N)nc1`, for which the Inhibition % is recorded as 5.17%.
As for `C=CC(=O)Nc1ccc(F)cc1`, the Inhibition % is on record as -2.06%.
Regarding `CCc1ccc(NC(=O)CCl)cc1`, the Inhibition % amounted to 99.1%.
As for `O=C1OCCC1Sc1ccc2ccccc2n1` (centres unmarked), the Inhibition % is -0.865%.
In the case of `C=CC(=O)N1CCCC(CC(N)=O)C1` (centres unmarked), the Inhibition % came out at 12.1%.
`C=CC(=O)Nc1ccc2c(c1)CS(=O)(=O)C2`: the Inhibition % is 9.66%.
Turning to `N#Cc1ccc(Cl)cc1NC(=O)CCl`, the Inhibition % was 0.348%.
For the compound `C=CC(=O)NC1(CO)Cc2ccccc2C1`, the Inhibition % stood at 10.4%.
For `CCc1nc(C)cn1S(=O)(=O)c1cc(F)ccc1OC`, the Inhibition % is recorded as 16.1%.
For the compound `Cc1ccc(C2=NN(C(=O)CCl)C(c3cccs3)C2)o1` (centres unmarked), the Inhibition % is 1.69%.
As for `O=C(CCl)c1ccc(F)c(F)c1`, the figure is 22.1%.
Take `Cc1ccc(C)c(C=C(C#N)S(C)(=O)=O)c1`: the Inhibition % was -1.36%.
To `O=C(CCl)NC(=O)CCSc1ccccc1` belongs 8.57%; to `O=c1n(CCCl)nc2ccccn12`, 3.05%; to `C=CC(=O)Nc1cccc(CN2CCCC2=O)c1`, 10.1%.
`CCOc1cc(C)c(Cl)cc1S(=O)(=O)n1cccn1`: the Inhibition % is on record as -3.16%.
As to `O=C1CC(c2ccccc2)N1` (centres unmarked), the Inhibition % is reported as 7.05%.
As to `CC1(NC(=O)CCl)CCS(=O)(=O)C1` (centres unmarked), the Inhibition % is reported as 2.17%.
Take `O=C(CCl)Nc1ccc(Cl)c(Cl)c1`: the Inhibition % amounted to 63%.
Consider `C=CC(=O)NCC1(N2CCOCC2)CCSC1` (centres unmarked), for which the Inhibition % came to 9.48%.
With `C=C(Cl)CSc1ncnc2[nH]cnc12`, the Inhibition % turned out to be 3.58%.
As for `Cc1ccc(C2=NN(C(=O)CCl)C(c3ccco3)C2)cc1` (centres unmarked), the figure is 9.14%.
On to `C=CC(=O)N1Cc2nc(C)nc(O)c2C1`, for which the Inhibition % is listed as 9.29%.
For `Cl.O=C(CCl)Nc1cccc(CN2CCSCC2)c1`, the Inhibition % is listed as 13.6%.
For the compound `Cn1cc(CCCl)cn1`, the Inhibition % is recorded as -0.892%.
As for `NC(=O)c1ccc(NC(=O)CCCl)cc1`, the figure is 4.37%; as for `CCNc1cnc(C#N)cn1`, 8%.
To `CN(C(=O)c1cc(C(N)=O)cs1)C1CC(C)(C)OC1=O` (centres unmarked) belongs 7.6%; to `C=CC(=O)NC1CCSC2(CCC2)C1` (centres unmarked), 13.5%.
For the compound `NS(=O)(=O)C=Cc1ccccc1`, the Inhibition % worked out at 9.94%.
As for `C=CCNC(=O)C(C#N)=Cc1ccccc1F`, the figure is 9.92%; as for `CC(=O)NCc1ccc(C(=O)CCl)cc1`, 77.1%; as for `CC1CC1C(=O)N1CCC(CS(=O)(=O)F)CC1` (centres unmarked), 25.9%.
Regarding `OB(O)c1cc(F)ccc1OCc1ccncc1`, the Inhibition % is 3.85%.
With `C=CC(=O)NCC1=CCCCC1`, the Inhibition % amounted to 9.18%.
For the compound `C=CC(=O)N(C)CC(=O)Nc1cc(C)c(=O)n(C)c1`, the Inhibition % stood at 54.5%.
In the case of `Cc1cc(Cn2c(-c3ccccn3)noc2=O)on1`, the Inhibition % stood at 8.09%.
`COc1cc(OC(F)F)ccc1B1OC(C)(C)C(C)(C)O1`: the Inhibition % is listed as -1.65%.
Take `N#Cc1cc(C(F)(F)F)cc(Cl)n1`: the Inhibition % is listed as 7.91%.
Regarding `CCN(CCC#N)S(=O)(=O)C=Cc1ccc(Cl)cc1`, the Inhibition % is on record as 31%.
As for `CCc1ccc(OC)c(S(=O)(=O)n2cccn2)c1`, the figure is 9.73%; as for `O=C(Cc1ccc2c(c1)COC2)Nc1cccc(S(=O)(=O)F)c1`, 97.6%; as for `CC1(C)OB(c2cncc(OCCCN3CCCC3)c2)OC1(C)C`, 7.53%.
Turning to `O=C(C1CCOCC1)N1CCOC(CS(=O)(=O)F)C1` (centres unmarked), the Inhibition % is 13.3%.
To `C=CC(=O)NCc1cc(-c2ccccc2)on1` belongs 16.5%.
For `CCc1ccnc(C#N)c1`, the Inhibition % is 4%.
As for `COc1cc(S(=O)(=O)n2ccc(C)n2)ccc1Cl`, the figure is 17.7%; as for `CC(C)N(C(=O)Cn1cnc(C#N)n1)C1CCCCC1`, 0.146%; as for `Cl.O=S(=O)(F)CCNc1ccc(Cl)cc1`, 66%.
Regarding `Cc1cc(C)cc(-c2nnc(SC3CCOC3=O)o2)c1` (centres unmarked), the Inhibition % is on record as 36.4%.
As to `O=C(CCl)NCC1CCC1`, the Inhibition % is 12.8%.
To `CC1(C)OB(c2ccc(S(N)(=O)=O)c(Cl)c2)OC1(C)C` belongs 2.85%; to `CC1(C)OB(CC2CC3(CCNC3)C2)OC1(C)C.Cl` (centres unmarked), 0.986%; to `CC1(C)OB(C2CCCNC2)OC1(C)C.Cl` (centres unmarked), 21.4%.
Regarding `N#Cc1ccnc(S)c1`, the Inhibition % is reported as 67%.
`C=CC(=O)NC1CCCN(c2cnn(C)c2)C1` (centres unmarked): the Inhibition % was 31.2%.
Regarding `Cc1ccc(C=CC(=O)N2CCN(S(C)(=O)=O)CC2)o1`, the Inhibition % stood at 16.4%.
To `O=C(CCl)Nc1nnc(C2CCCO2)o1` (centres unmarked) belongs -4.86%.
For `O=c1[nH]c(S)nc2cc(Cl)ccc12`, the Inhibition % is 6.16%.
Turning to `N#Cc1nccnc1N1CC=C(c2ccccc2F)CC1`, the Inhibition % is -0.449%.
Regarding `c1cnc2c(c1)C1OC1c1cccnc1-2` (centres unmarked), the Inhibition % is reported as 26.9%.
As for `C=CC(=O)N1CC(NC(=O)C2CC2)C1`, the figure is 6.32%.
As for `CC(C)NC(=O)C(C#N)=Cc1ccc(O)c(Cl)c1`, the figure is 1.49%.
`Cn1ncc(C(F)(F)F)c1B1OC(C)(C)C(C)(C)O1`: the Inhibition % is on record as 8.08%.
Turning to `Cc1csc(C(C#N)=Cc2ccc(C(=O)O)cc2)n1`, the Inhibition % turned out to be 7.8%.
As for `Sc1ccc(Cl)nn1`, the figure is 53.5%; as for `CN1CCOC(c2cccc(B3OC(C)(C)C(C)(C)O3)c2)C1.Cl` (centres unmarked), 1.38%; as for `CN(C)c1ccc(C=C(C#N)C(=O)N2CCC2)cc1`, -2.52%.
As for `O=C(CCl)Nc1nc2c(F)c(F)c(F)cc2s1`, the Inhibition % was -4.93%.
To `CC1(C)OB(c2sccc2C#N)OC1(C)C` belongs 3.29%.
Regarding `O=C(CCl)NC(=O)Nc1ccc(Br)cc1`, the Inhibition % is 23.3%.
With `C=CC(=O)N1CCCC(C(=O)O)C1` (centres unmarked), the Inhibition % turned out to be 5.18%.
With `N#Cc1ccnc(C(=O)O)c1`, the Inhibition % is recorded as 1.71%.
As for `Cc1ccc2oc(=O)n(S(C)(=O)=O)c2c1`, the Inhibition % was 38.3%.
`C=CC(=O)N1CCC[C@H]1Cn1cc(C2CC2)nn1`: the Inhibition % came to 7.52%.
With `N#Cc1c(NC(=O)c2cccc(F)c2F)nc2n1CCS2`, the Inhibition % amounted to 10.5%.
Turning to `Cc1nc(Cl)cc(C#N)n1`, the Inhibition % is 3.59%.
For `O=C(CS)Nc1ccccc1F`, the Inhibition % is 81.5%.
As for `COc1ccccc1NC(=O)CCCl`, the Inhibition % came out at 15.3%.
To `C=CC(=O)N1CC(C)S(=O)(=O)C(CC)C1` (centres unmarked) belongs 6.18%; to `NC(=O)CC1CCN(S(=O)(=O)C=Cc2ccccc2)CC1`, 5.56%; to `N#Cc1nc(N[C@@H]2C=C[C@H](CO)C2)sc1Cl`, 8.78%.
As to `Cc1nc(S)c2c(=O)n(C)c(=O)n(CC(C)C)c2n1`, the Inhibition % was -2.59%.
On to `Cc1nn(C)c(Cl)c1C=CC(=O)N1CCN(C)CC1C` (centres unmarked), for which the Inhibition % was 14.1%.
`CCC1CN(C(=O)CCl)CCO1` (centres unmarked): the Inhibition % was 33.6%.
Turning to `C=CC(=O)Nc1ccc2c(C)noc2c1`, the Inhibition % is listed as 4.18%.
As for `Cc1cnc(CNc2ccc(C#N)nc2)o1`, the Inhibition % is 2.1%.
To `CNC(=O)N1CCN(S(=O)(=O)C=Cc2ccccc2)CC1` belongs 4.54%; to `COc1cc(S(=O)(=O)F)ccc1O`, 17.3%; to `CC(CCc1cccn1C)Nc1nccnc1C#N` (centres unmarked), 1.08%.
With `CN(C(=O)CCl)C1CCS(=O)(=O)C1` (centres unmarked), the Inhibition % was 8.14%.
With `C=CC(=O)NC1CCc2nc(C(C)C)nn2C1` (centres unmarked), the Inhibition % amounted to 9.96%.
Take `O=C(NCCC(O)c1ccccc1)c1cccnc1S` (centres unmarked): the Inhibition % is 3.79%.
On to `Cl.ClCCN1CCSCC1`, for which the Inhibition % is reported as 5.12%.
For the compound `COc1ccc(B2OC(C)(C)C(C)(C)O2)cn1`, the Inhibition % is 3.67%.
`Cc1ccc(-n2nnnc2SC2CCOC2=O)cc1` (centres unmarked): the Inhibition % is listed as 4.59%.
On to `C=CC(=O)Nc1cccc(Br)c1`, for which the Inhibition % turned out to be 2.47%.
Regarding `C=CC(=O)N(C)CC(=O)N1CCOCC1`, the Inhibition % was 16.7%.
With `N#Cc1ncoc1-c1cccc(C(F)(F)F)c1`, the Inhibition % is 6.02%.
For the compound `CC(C)CN(C1CC1)S(=O)(=O)C=Cc1ccccc1`, the Inhibition % stood at 13.3%.
For `CCOc1cc(C)c(S(=O)(=O)n2cccn2)cc1C`, the Inhibition % is listed as 0.397%.
Turning to `C=CC(=O)NCC1CCOC1(C)C` (centres unmarked), the Inhibition % was -0.439%.
For `Cc1c(CN2CCCC3(C2)OCCO3)cc(C#N)n1C`, the Inhibition % is recorded as 0.384%.
As for `O=C(O)C1CCN(C(=O)C=Cc2ccccc2Cl)CC1`, the Inhibition % is 3.44%.
